From PubChem BioAssay AID2147 (National Center for Advancing Translational Sciences (NCATS), 2009)
The campaign covered roughly 230,000 compounds. About 3,600 (1.6%) were called active. Inconclusive results, whose numbers are uncertain, are shown with a selection of clear calls. Calls come from the whole dose curve; as a rule, active = well fitted inhibition curve with a large enough effect (not every such curve was filed as active); inconclusive = small, poorly fitted or top-dose-only effect, or another doubt; inactive = no such curve, though single readings can be large or run the other way. A potency beside an inconclusive call is a rough fit, not a confirmed value.

target: Lysine-specific demethylase 4E (Homo sapiens) (UniProt B2RXH2); assay: qHTS Assay for Inhibitors of Human Jumonji Domain Containing 2E (JMJD2E); conditions: JMJD2E catalytic domain, FDH-coupled NADH fluorescence (FDH is formaldehyde dehydrogenase); series mostly up to 57.1 µM
Note: nearly all actives have a fitted effect of over 50% in size.
Potency is the fitted concentration of half-maximal effect; tags give direction and shape of the fitted curve.
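Throughout, for activity change, negative = inhibition: 0% = wells with enzyme and -100% = buffer wells without enzyme.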

Sequence of UniProt B2RXH2 (B2RXH2 whole entry, looked up, the tested form may be a part): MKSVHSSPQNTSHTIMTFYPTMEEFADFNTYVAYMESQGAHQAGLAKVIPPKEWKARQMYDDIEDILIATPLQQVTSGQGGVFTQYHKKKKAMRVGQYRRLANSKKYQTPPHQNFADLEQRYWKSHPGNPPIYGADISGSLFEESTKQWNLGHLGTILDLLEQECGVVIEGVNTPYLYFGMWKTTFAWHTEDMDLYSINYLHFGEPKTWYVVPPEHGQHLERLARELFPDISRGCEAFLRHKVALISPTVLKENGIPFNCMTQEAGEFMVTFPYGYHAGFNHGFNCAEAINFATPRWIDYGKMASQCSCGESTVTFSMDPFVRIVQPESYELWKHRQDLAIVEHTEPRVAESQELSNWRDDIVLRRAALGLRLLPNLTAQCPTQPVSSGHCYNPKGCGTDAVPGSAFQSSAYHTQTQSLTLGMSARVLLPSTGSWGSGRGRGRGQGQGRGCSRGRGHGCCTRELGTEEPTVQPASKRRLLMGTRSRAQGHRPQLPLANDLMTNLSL

| Compound | Potency | activity change, negative = inhibition |
| --- | --- | --- |
| CCOC(=O)c1cncc(O)c1 | inactive | – |
| Cc1cc2cc(CNS(=O)(=O)c3ccccc3)ccc2n1C | inactive | – |
| Cc1cc(N2CCN(c3ccc([N+](=O)[O-])c4cccnc34)CC2)c2ccccc2n1 | inconclusive: 8.91 µM [inhibitor, single point] | – |
| COc1ccccc1C(=O)CSc1n[nH]c(N)n1 | inconclusive: 39.8 µM [inhibitor, single point] | – |
| COc1ccc(/C=C/C(=O)Nc2c(C(=O)O)[nH]c3ccccc23)cc1OC | inactive | – |
| O=C(NCc1ccccc1)c1ccc(CN(c2ccccn2)S(=O)(=O)c2ccccc2)cc1 | inconclusive: 31.6 µM [inhibitor, partial curve] | – |
| Cc1onc(-c2ccc(Cl)cc2Cl)c1-c1csc(N/N=C/c2ccccc2)n1 | inconclusive: 39.8 µM [inhibitor, single point] | – |
| COC(=O)c1sccc1NC(=S)N1CCC(C(N)=O)CC1 | inactive | – |
| COC(=O)c1cc2c(=O)n3ccccc3nc2n(C)c1=N | inconclusive: 28.2 µM [inhibitor, partial curve] | – |
| COc1ccc(C(=O)ON=C2C=C(C)C(=O)C(C)=C2)cc1 | inactive | – |
| CCOc1cccc(=O)c2c(C)n(-c3ccc(C(=O)O)cc3)c(C)c12 | inconclusive: 25.1 µM [inhibitor, single point] | – |
| Cc1ccc(NC(=S)N(C)C)cc1C | inactive | – |
| CCc1ccccc1NC(=O)Nc1cccn(Cc2ccccc2F)c1=O | inconclusive: 28.2 µM [inhibitor, partial curve] | – |
| O=C(Cc1cccs1)NCc1cccc(CNC(=O)Cc2cccs2)c1 | inconclusive: 39.8 µM [inhibitor, single point] | – |
| COc1cccc(CC(=O)N2CCc3nc(-c4ccccc4)c4c(c3C2)CO[C@@H](C)C4)c1 | – | inactive: 0.85% [at 11.4 µM] |
| O=C(CN1C(=O)c2cccc3cccc1c23)N1CCN(c2ccccc2)CC1 | inconclusive: 25.1 µM [inhibitor, single point] | – |
| Cc1cc(N2CCN(C)CC2)nc2ccc(NC(=O)CCC(=O)NCc3ccco3)cc12 | inconclusive: 28.2 µM [inhibitor, partial curve] | – |
| Cc1cc(CNC(=O)CC2C(=O)NCCN2CC(C)(C)C)nn1C (configuration not stated) | inconclusive: 39.8 µM [inhibitor, single point] | – |
| Cc1cc(C)n(-c2ccc(F)cc2)c(=O)c1C#N | inconclusive: 28.2 µM [inhibitor, single point] | – |
| CCOC(=O)C(C)Oc1cccc2c(=O)n(CC(=O)NCc3ccc(F)cc3)ccc12 (configuration not stated) | inconclusive: 35.5 µM [inhibitor, single point] | – |
| Cn1nc(-c2ccc(C(=O)Nc3ccc(F)cc3)cc2)c2ccccc2c1=O | inconclusive: 35.5 µM [inhibitor, single point] | – |
| COc1cccc(C2c3[nH]c4ccccc4c3CCN2Cc2cccc(C)n2)c1 (configuration not stated) | inconclusive: 28.2 µM [inhibitor, single point] | – |
| Cn1cc(C(=O)c2ccc(Cl)cc2Cl)cc1C(=O)N/N=C(\N)COc1ccc(Cl)cc1Cl | inconclusive: 39.8 µM [inhibitor, single point] | – |
| CCNCCNC(=O)c1c(O)c2ccccc2n(CC)c1=O | inconclusive: 39.8 µM [inhibitor, single point] | – |

| Compound | Potency | activity change, negative = inhibition |
| --- | --- | --- |
| CC1(C)Cc2c(C#N)c(N3CCOCC3)nc(-c3ccccc3)c2CO1 | inconclusive: 35.5 µM [inhibitor, partial curve] | – |
| Cc1cccc(-c2c3c(=O)n(C)c(=O)n(C)c3cn2-c2ccccc2O)c1 | inconclusive: 25.1 µM [inhibitor, partial curve] | – |
| COc1cccc(NC(=S)/C(=C(\[O-])c2cc(C)n(-c3ccccc3F)c2C)[n+]2ccc(N(C)C)cc2)c1 | inactive | – |
| CC(C)NC(=S)NC(=O)c1ccc(Cl)cc1Cl | inactive | – |
| CN1CCc2nc(SCCOc3ccccc3)c(C#N)cc2C1 | inconclusive: 31.6 µM [inhibitor, partial curve] | – |
| COc1ccc2cc(C(=O)C3CCCN(Cc4ccccn4)C3)ccc2c1 (configuration not stated) | inconclusive: 28.2 µM [inhibitor, partial curve] | – |
| O=C(/C=C/c1ccc(OCCCF)cc1)Nc1ccnc(-c2ccncc2)n1 | inconclusive: 39.8 µM [inhibitor, single point] | – |
| O=C(Nc1ccc(NC(=O)c2ccco2)c(Cl)c1)c1ccccc1 | inconclusive: 35.5 µM [inhibitor, single point] | – |
| CCOC(=O)NC(NC(=S)Nc1ccc(OC)cc1)C(Cl)(Cl)Cl (configuration not stated) | inactive | – |
| O=C(Nc1ccc(NC(=O)C2CCCCC2)nc1)c1cccs1 | inactive | – |
| Cc1sc(N)nc1-c1cccs1 | inactive | – |
| O=C(Cc1ccc(-n2c(=O)c3ccccc3n(Cc3ccc(F)cc3)c2=O)cc1)NCC1CCCO1 (configuration not stated) | inconclusive: 39.8 µM [inhibitor, single point] | – |
| CCCc1[nH]nc2c1C(c1cccnc1)C(C#N)=C(N)O2 (configuration not stated) | inactive | – |
| CNC(=S)N/N=C/c1cn(CCOc2ccccc2OC)c2ccccc12 | inconclusive: 39.8 µM [inhibitor, single point] | – |
| CCOC(=O)C(Cc1ccccc1)C(=O)Nc1ccc(N(CC)CC)cc1 (configuration not stated) | inactive | – |
| COc1cccc(Cn2cccc(NC(=O)NC3CCCCC3)c2=O)c1 | inconclusive: 28.2 µM [inhibitor, single point] | – |
| CCOC(=O)c1cc(NC(=O)Nc2ccccc2Cl)c(C)nc1C | inactive | – |
| C=CCOC(=O)C1=C(C)OC(N)=C(C#N)C1c1ccccc1F (configuration not stated) | inactive | – |
| CCN(c1ccc(NS(=O)(=O)c2cc(Cl)ccc2Cl)cc1)C(C)C | inactive | – |
| Cc1ccc(-c2nc(CS(=O)CC(=O)NCCN3CCCC3)c(C)o2)cc1 (configuration not stated) | inconclusive: 39.8 µM [inhibitor, single point] | – |
| COC(=O)CSc1nc(-c2cccs2)ccc1C#N | inconclusive: 28.2 µM [inhibitor, partial curve] | – |
| O=C(OC1CCOC1=O)c1ccc2ccccc2n1 (configuration not stated) | inconclusive: 39.8 µM [inhibitor, single point] | – |
| C(=N\n1cnnc1)/c1ccc(N2CCOCC2)s1 | inconclusive: 25.1 µM [inhibitor, single point] | – |
